The values that follow come from PubChem BioAssay (NCI).

Some test systems named below: NCI-H226 lung; OVCAR-5 ovarian; K-562 leukemia; LOX IMVI melanoma; MOLT-4 leukemia; CAKI-1 renal; SR leukemia; DU-145 prostate; NCI-H23 lung; HCT-116 colon; RXF 393 renal; COLO 205 colon; HCT-15 colon; SF-539 CNS; A498 renal; HOP-62 NSCLC; SK-MEL-28 melanoma; M14 melanoma; SK-MEL-5 melanoma; CCRF-CEM leukemia; SNB-75 CNS; IGROV1 ovarian; ACHN renal; HL-60(TB) leukemia; NCI-H522 lung; KM12 colon; UACC-62 melanoma; MALME-3M melanoma; HOP-92 NSCLC; OVCAR-3 ovarian; SNB-19 CNS; SF-268 CNS; U251 CNS; UO-31 renal; UACC-257 melanoma; NCI-H460 lung; XF 498 CNS; EKVX NSCLC; SF-295 CNS; SW-620 colon; SK-OV-3 ovarian; SN12C renal; MDA-N; RPMI-8226 leukemia; NCI/ADR-RES ovarian; PC-3 prostate; OVCAR-8 ovarian; OVCAR-4 ovarian.

Holding throughout (experiment): inhibition of tumour cell growth, NCI panel, 48 h

SMILES strings stand for the structures.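 Results reflect a 48-hour exposure of cells in 96-well plates to compound at five concentrations. GI50 marks 50% less growth.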 Not every entry of the source has a single result; some have several. This list holds those alone. The source may hold further records. Records of one sample usually come from different ranges of test concentrations, which the source does not state; a value can be the end of its range.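 TGI: total growth inhibition.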

In the case of `O=C1/C(=C\c2ccc([N+](=O)[O-])cc2)CS(=O)(=O)C/C1=C/c1ccc([N+](=O)[O-])cc1`, the TGI with NCI-H226 lung is 400 nM and 8.42 µM; with OVCAR-5 ovarian, 337 nM and 3.64 µM; with LOX IMVI melanoma it was 152 nM and 1.97 µM; in the assay on MOLT-4 leukemia it was 553 nM and > 100 µM; with CAKI-1 renal, 676 nM and 7.11 µM; in the assay on SR leukemia it was 626 nM and > 100 µM. In addition, the GI50 is 44.3 nM and 1.04 µM with K-562 leukemia; 73 nM and 16.7 µM with MOLT-4 leukemia.
In the case of `COc1ccc(C2c3cc4c(c(OC)c3CC3OCC(=O)C32)OCO4)cc1OC` (stereo not drawn), the TGI was 136 nM and > 100 µM with DU-145 prostate; 978 nM and 46.2 µM in the assay on NCI-H23 lung; 426 nM and > 100 µM in the assay on HCT-116 colon.
Take `COc1cccc2c1C(=O)c1c(O)c3c(c(O)c1C2=O)C[C@@](O)(C(C)=O)C[C@@H]3OC1CC(N(C)C)C(O)C(C)O1` (stereo partly drawn): the TGI with NCI-H226 lung is given as 2.15 nM, 423 nM, < 21.8 nM; in the assay on RXF 393 renal, 9.71 nM, 208 nM, 83.8 nM; in the assay with COLO 205 colon, 6.89 nM, 217 nM, 76.8 nM; in the assay on HCT-15 colon, 7.78 nM, 1.65 µM, 538 nM; in the assay on OVCAR-5 ovarian, 7.93 nM, 770 nM, 237 nM; in the assay on SF-539 CNS it was 6.99 nM, 230 nM, 98.7 nM. Besides, the TGI in the assay with A498 renal is 6.02 nM, 341 nM, 207 nM; with NCI-H23 lung, 7.18 nM, 338 nM, 238 nM; in the assay on LOX IMVI melanoma it was 3.27 nM, 155 nM, 52.7 nM; in the assay with HOP-62 NSCLC, 6.91 nM, 725 nM, 293 nM; with SK-MEL-28 melanoma, 7.28 nM, 241 nM, 181 nM; in the assay with M14 melanoma it was 6.66 nM and 206 nM. The TGI with MOLT-4 leukemia was 4.38 nM, 111 nM, 44 nM; with SK-MEL-5 melanoma, 6.28 nM, 194 nM, 147 nM; with CCRF-CEM leukemia it was 9.27 nM, 1.15 µM, 217 nM; in the assay with SNB-75 CNS, 6.25 nM, 442 nM, 174 nM; with IGROV1 ovarian it was 9.32 nM, 1.29 µM, 1.84 µM; with ACHN renal, 8.19 nM and 3.16 µM. The TGI in the assay with HL-60(TB) leukemia is 7.84 nM, 412 nM, 219 nM; in the assay on NCI-H522 lung it was 7.12 nM, 301 nM, 234 nM; in the assay with KM12 colon, 8.33 nM, 1.73 µM, 289 nM; in the assay with UACC-62 melanoma, 6.28 nM, 179 nM, 70.6 nM; with MALME-3M melanoma it was 264 nM and 25.5 nM; in the assay on HOP-92 NSCLC, 7.86 nM, 510 nM, 139 nM. Further, the TGI is 9.26 nM, 834 nM, 791 nM in the assay on OVCAR-3 ovarian; 7.27 nM, 2.46 µM, 11.3 µM in the assay on SNB-19 CNS; 7.98 nM, 631 nM, 399 nM with SF-268 CNS; 8.5 nM, 5.2 µM, 356 nM in the assay on U251 CNS; 5.29 nM, 323 nM, 177 nM in the assay with UO-31 renal; 7.76 nM, 341 nM, 176 nM in the assay with UACC-257 melanoma. Moreover, the TGI with SR leukemia was 3.44 nM and 36.1 nM; in the assay on NCI-H460 lung it was 7.1 nM, 1.04 µM, 116 nM; in the assay with EKVX NSCLC, 9.48 nM, 475 nM, 353 nM; in the assay on SF-295 CNS it was 7.69 nM, 412 nM, 364 nM; with HCT-116 colon, 4.4 nM and 371 nM. Also, the GI50 in the assay with XF 498 CNS is 104 nM and 10 nM.
`CC[C@@]1(O)C(=O)OCc2c1cc1n(c2=O)Cc2cc3c(Cl)c4c(cc3nc2-1)OCO4`: the GI50 in the assay on SW-620 colon was < 1 nM and 26.5 nM; with MDA-N, 41.3 nM and 5.2 µM; in the assay with RPMI-8226 leukemia, < 1 nM and 14.6 nM; in the assay with PC-3 prostate, 293 nM and 28.4 nM; in the assay with NCI-H522 lung it was 3.44 nM and 85 nM; with OVCAR-4 ovarian, 69.1 nM and 4.19 µM. Moreover, the TGI was 4.98 µM and > 100 µM in the assay on SK-OV-3 ovarian; 8.86 µM and > 100 µM with SN12C renal; 6.41 µM and 28.4 nM in the assay with NCI-H23 lung; 541 nM and 10.5 µM in the assay with HOP-62 NSCLC; 228 nM and > 100 µM in the assay with NCI/ADR-RES ovarian; 1.02 nM and 167 nM in the assay with MOLT-4 leukemia. The TGI is 2.02 µM and > 100 µM in the assay on OVCAR-8 ovarian; 124 nM and 1.69 µM in the assay with U251 CNS; 2.79 µM and > 100 µM in the assay on OVCAR-4 ovarian; 316 nM and 23 nM with UO-31 renal.
